Test in all cases: Primary Screen for Target Class Profiling of Small Molecule Inhibitors of Methyltransferases
In experiment [1] the target is Glycine N-methyltransferase (Homo sapiens) (UniProt Q14749). Particulars: purified enzyme, MTase-Glo SAH luminescence; measured here: GNMT inhibition; at 40 µM; stronger effect = lower value. A digest of the protocol: (§1)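 Each enzyme was assayed with SAM and its substrate. SAH formation detected by MTase-Glo luminescence; single-point 40 uM screen[…].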
The target of experiment [2] is Guanidinoacetate N-methyltransferase (Homo sapiens) (UniProt Q14353). Particulars: purified enzyme, MTase-Glo SAH luminescence; measured here: GAMT inhibition; at 40 µM; stronger effect = lower value. A digest of the protocol:
as §1

Experiment [3] addresses Histamine N-methyltransferase (Homo sapiens) (UniProt P50135). Particulars: purified enzyme, MTase-Glo SAH luminescence; measured here: HNMT inhibition; at 40 µM; stronger effect = lower value. A digest of the protocol: as §1
In experiment [4] the target is Nicotinamide N-methyltransferase (Homo sapiens) (UniProt P40261). Particulars: purified enzyme, MTase-Glo SAH luminescence; measured here: NNMT inhibition; at 40 µM; stronger effect = lower value. A digest of the protocol:
as §1

Experiment [5] deals with Phenylethanolamine N-methyltransferase (Homo sapiens) (UniProt P11086). Particulars: purified enzyme, MTase-Glo SAH luminescence; measured here: PNMT inhibition; at 40 µM; stronger effect = lower value. An outline of the steps: as §1

The list shows a part of the results. These are further read-outs of the screen, such as a control signal, another cell line or another target. No call is given for them.
On the % scale 0 is the no-effect control and ±100 the full control effect.

For the compound `CC1(C)CC[C@]2(C(=O)O[C@@H]3O[C@H](CO)[C@@H](O)[C@H](O)[C@H]3O)CC[C@]3(C)C(=CCC4[C@@]5(C)CC[C@H](O[C@@H]6O[C@H](C(=O)O)[C@@H](O)[C@H](O[C@@H]7O[C@H](CO)[C@H](O)[C@H](O)[C@H]7O)[C@H]6O)C(C)(C)C5CC[C@]43C)C2C1` (stereo partly drawn), the activity change, negative = inhibition in experiment [1] is -1.67%; in experiment [2], 7.06%; in experiment [3], 8.19%; in experiment [4], -7.74%; in experiment [5], -2.13%.

`CCCCn1c(=O)c2sccc2n2c(CCC(=O)NCc3ccncc3)nnc12`: the activity change, negative = inhibition came to 4.74% in experiment [1]; 0.032% in experiment [2]; 7.59% in experiment [3]; 11.5% in experiment [4]; 2.88% in experiment [5].

`CC[C@H](C)C(=O)O[C@H]1C[C@@H](C)C=C2C=C[C@H](C)[C@H](CC[C@@H]3C[C@@H](O)CC(=O)O3)[C@H]21`: the activity change, negative = inhibition in experiment [1] is -0.645%; in experiment [2], 0.035%; in experiment [3], 1.15%; in experiment [4], -14.8%; in experiment [5], -9.23%.

As for `O=C(NCCCc1ccccc1F)[C@H]1CCC[C@@H](O)C1`, the activity change, negative = inhibition in experiment [1] is -0.638%; in experiment [2], -2.2%; in experiment [3] it was 0.536%; in experiment [4], -6.18%; in experiment [5] it was -2.09%.

For the compound `CSc1ccc(CCNC(=O)c2cc3n(n2)CCCN(Cc2ccc(F)cc2)C3=O)cc1`, the activity change, negative = inhibition in experiment [1] is -5.26%; in experiment [2], 0%; in experiment [3], -0.403%; in experiment [4], -6.05%; in experiment [5], 3.22%.

With `CSc1ccc(CCNC(=O)CNC(=O)C2(C)Cn3c(cc4ccccc43)C(=O)N2C)cc1` (stereo not drawn), the activity change, negative = inhibition stood at 2.92% in experiment [1]; 6.32% in experiment [2]; 9.37% in experiment [3]; 3.56% in experiment [4]; 0.395% in experiment [5].

As for `Cc1ccc(CNC(=O)C2(C)Cc3ccccc3C(=O)N2c2cccc(C)c2)cc1` (stereo not drawn), the activity change, negative = inhibition in experiment [1] worked out at 1.75%; in experiment [2] it was 3.54%; in experiment [3], 13%; in experiment [4] it was 1.59%; in experiment [5], 10.3%.

For `CC1CCC(NC(=O)C2(C)Cn3c(ccc3-c3ccccc3)C(=O)N2CCc2cccs2)CC1` (stereo not drawn), the activity change, negative = inhibition in experiment [1] is 3.82%; in experiment [2] it was 0.479%; in experiment [3], -3.99%; in experiment [4], -1.95%; in experiment [5], 1.09%.

For the compound `O=C(/C=C/c1nc2ccccc2[nH]1)c1c(-c2ccccc2)c2cc(Cl)ccc2[nH]c1=O`, the activity change, negative = inhibition in experiment [2] is -30.6%; in experiment [4], -45.3%; in experiment [5], -3.13%.

On to `CC1(C(=O)NC2CCCCCCC2)Cn2c(cc3sccc32)C(=O)N1C1CCCCC1` (stereo not drawn), for which the activity change, negative = inhibition in experiment [1] is 3.16%; in experiment [2] it was -9.5%; in experiment [3], 7.75%; in experiment [4], 1.31%; in experiment [5], 0.673%.

On to `CC(C)(C)c1nn2c(SCC(=O)Nc3cccc(Cl)c3)nnc2[nH]c1=O`, for which the activity change, negative = inhibition in experiment [1] was 5.1%; in experiment [2] it was 1.46%; in experiment [3], 5.27%; in experiment [4], -5.57%; in experiment [5] it was -3.44%.

`CCCN(CC1CC1)C(=O)[C@@H]1COCC(=O)N1Cc1ccccc1`: the activity change, negative = inhibition in experiment [1] was -8.33%; in experiment [2] it was -13.2%; in experiment [3], -4.23%; in experiment [4] it was -18.4%; in experiment [5], -6.95%.

With `CC1(CNCc2ccccc2)COc2ccc(C(=O)NCc3cccs3)cc2N1` (stereo not drawn), the activity change, negative = inhibition is -4.46% in experiment [1]; -0.925% in experiment [2]; -14.3% in experiment [3]; -4.73% in experiment [4]; 0.984% in experiment [5].

Take `CCc1ccc(CNC(=O)CNC(=O)C2(C)Cn3c(cc4ccccc43)C(=O)N2C)cc1` (stereo not drawn): the activity change, negative = inhibition was -1.59% in experiment [1]; 3.18% in experiment [2]; 5.6% in experiment [3]; 1.44% in experiment [4]; 3.46% in experiment [5].

In the case of `CC1(C)CC[C@]23CO[C@@]4(CCC5[C@@]6(C)CC[C@H](O[C@@H]7OC[C@H](O[C@@H]8O[C@H](CO)[C@@H](O)[C@H](O)[C@H]8O[C@@H]8OC[C@@H](O)[C@H](O)[C@H]8O)[C@H](O)[C@H]7O[C@@H]7O[C@H](CO)[C@@H](O)[C@H](O)[C@H]7O)[C@@](C)(CO)C6CC[C@@]5(C)[C@]4(C)C[C@H]2O)[C@@H]3C1` (stereo partly drawn), the activity change, negative = inhibition is 1.09% in experiment [1]; 6.78% in experiment [2]; 4.55% in experiment [3]; -3.41% in experiment [4]; 5.81% in experiment [5].

With `CC(=O)Nc1c2n(c3ccc(F)cc13)CC(C)(C(=O)NCCC(C)C)N(CCc1ccccc1)C2=O` (stereo not drawn), the activity change, negative = inhibition is 0.74% in experiment [1]; 0.058% in experiment [2]; 5.6% in experiment [3]; 1.27% in experiment [4]; -1.98% in experiment [5].

For the compound `CC(C)CCNC(=O)C1(C)Cn2c(nc3ccccc32)C(=O)N1CCc1ccc(Cl)cc1` (stereo not drawn), the activity change, negative = inhibition was -4.06% in experiment [1]; 0% in experiment [2]; 5.67% in experiment [3]; -3.53% in experiment [4]; 1.89% in experiment [5].

On to `CC(C)CCNC(=O)C1(C)Cn2c(cc3ccccc32)C(=O)N1Cc1cccc(Cl)c1` (stereo not drawn), for which the activity change, negative = inhibition in experiment [1] was 4.73%; in experiment [2], 3.89%; in experiment [3], 8.29%; in experiment [4] it was 5.89%; in experiment [5], 2.86%.

With `O=C(CCCCC1CCCCC1)N1CCC(c2cnc[nH]2)CC1`, the activity change, negative = inhibition was -2.58% in experiment [1]; 7.01% in experiment [2]; 7.85% in experiment [3]; -19.2% in experiment [4]; 0.366% in experiment [5].

`COCc1nnc2n1CCC(NC(=O)Cc1c[nH]c3ccccc13)CC2` (stereo not drawn): the activity change, negative = inhibition in experiment [1] was -0.536%; in experiment [2], -1.11%; in experiment [3] it was -0.754%; in experiment [4] it was 6.12%; in experiment [5], 1.87%.

As for `COC(=O)c1cc2n(n1)CC(C)(C(=O)NC1CCCCCC1)N(c1cccc(OC)c1)C2=O` (stereo not drawn), the activity change, negative = inhibition is 0.186% in experiment [1]; 1.07% in experiment [2]; 2.68% in experiment [3]; -3.28% in experiment [4]; -4.21% in experiment [5].

Take `N#Cc1cccnc1-c1cccc(C(=O)NCCN[S+](=O)([O-])c2cccc(C(F)(F)F)c2)c1`: the activity change, negative = inhibition is -2.75% in experiment [1]; -5.05% in experiment [2]; -1.09% in experiment [3]; -6.39% in experiment [4]; -10.5% in experiment [5].

With `Cc1cc(CNS(=O)(=O)c2ccc3c(c2)oc(=O)n3C)c(C)n1-c1ccc(F)cc1`, the activity change, negative = inhibition in experiment [1] is -2.44%; in experiment [2] it was 1.94%; in experiment [3], 11.2%; in experiment [4] it was 4.87%; in experiment [5], 6.41%.

Take `CCCNC(=O)N1CCn2cccc2C1CCC` (stereo not drawn): the activity change, negative = inhibition in experiment [1] worked out at 6.11%; in experiment [2], 2.9%; in experiment [3], 6.91%; in experiment [4] it was 4.01%; in experiment [5], 8.41%.

As to `O=C(Nc1ccccc1)N1CCC(Cc2cnc3ccccc3c2)CC1`, the activity change, negative = inhibition is -4.68% in experiment [1]; 2.8% in experiment [2]; 4.26% in experiment [3]; -18.6% in experiment [4]; -6.66% in experiment [5].

For the compound `O=C(N[C@@H]1CCN(C(=O)c2n[nH]c3ccccc23)C[C@H]1O)c1cccnc1`, the activity change, negative = inhibition in experiment [1] is -0.2%; in experiment [2], -2.52%; in experiment [3], 3.14%; in experiment [4], -3.42%; in experiment [5], 1.89%.

Take `Cc1ccc(NC(=O)CSc2nnc3n(Cc4ccccc4)c(=O)c4ccccc4n23)cc1`: the activity change, negative = inhibition is -0.832% in experiment [1]; -0.401% in experiment [2]; 2.35% in experiment [3]; 0.219% in experiment [4]; -0.293% in experiment [5].

Regarding `CS(=O)(=O)N1CC(F)(F)C[C@H]1c1nc(C2CC2)no1`, the activity change, negative = inhibition in experiment [1] is 0.089%; in experiment [2], -0.671%; in experiment [3], 2.03%; in experiment [4], 0.375%; in experiment [5], 0.532%.

For the compound `Cc1cc(C)cc(N2C(=O)CSc3c(c4ccccc4n3C)C2C(=O)NCc2ccc(F)cc2)c1` (stereo not drawn), the activity change, negative = inhibition in experiment [1] is -2.99%; in experiment [2], 1.12%; in experiment [3] it was 4.1%; in experiment [4], 0.331%; in experiment [5], 0.997%.

For the origin of these results see PubChem BioAssay AID1745853 (National Center for Advancing Translational Sciences (NCATS), 2022).
